Data as given in publication PMC4336329 (PLoS ONE, 2015).
Among all 310,000 compounds or so, about 2,200 (0.71%) showed an effect of 50% or more. Effects have a minus sign here. The list shows a part of the results.

What follows are compounds tested against human ether-à-go-go-related gene (hERG) potassium channel (human, UniProt Q12809) (assay: primary screen, population patch clamp on CHO cells stably expressing hERG).
human ether-à-go-go-related gene (hERG) potassium channel, sequence (Q12809 whole entry, looked up): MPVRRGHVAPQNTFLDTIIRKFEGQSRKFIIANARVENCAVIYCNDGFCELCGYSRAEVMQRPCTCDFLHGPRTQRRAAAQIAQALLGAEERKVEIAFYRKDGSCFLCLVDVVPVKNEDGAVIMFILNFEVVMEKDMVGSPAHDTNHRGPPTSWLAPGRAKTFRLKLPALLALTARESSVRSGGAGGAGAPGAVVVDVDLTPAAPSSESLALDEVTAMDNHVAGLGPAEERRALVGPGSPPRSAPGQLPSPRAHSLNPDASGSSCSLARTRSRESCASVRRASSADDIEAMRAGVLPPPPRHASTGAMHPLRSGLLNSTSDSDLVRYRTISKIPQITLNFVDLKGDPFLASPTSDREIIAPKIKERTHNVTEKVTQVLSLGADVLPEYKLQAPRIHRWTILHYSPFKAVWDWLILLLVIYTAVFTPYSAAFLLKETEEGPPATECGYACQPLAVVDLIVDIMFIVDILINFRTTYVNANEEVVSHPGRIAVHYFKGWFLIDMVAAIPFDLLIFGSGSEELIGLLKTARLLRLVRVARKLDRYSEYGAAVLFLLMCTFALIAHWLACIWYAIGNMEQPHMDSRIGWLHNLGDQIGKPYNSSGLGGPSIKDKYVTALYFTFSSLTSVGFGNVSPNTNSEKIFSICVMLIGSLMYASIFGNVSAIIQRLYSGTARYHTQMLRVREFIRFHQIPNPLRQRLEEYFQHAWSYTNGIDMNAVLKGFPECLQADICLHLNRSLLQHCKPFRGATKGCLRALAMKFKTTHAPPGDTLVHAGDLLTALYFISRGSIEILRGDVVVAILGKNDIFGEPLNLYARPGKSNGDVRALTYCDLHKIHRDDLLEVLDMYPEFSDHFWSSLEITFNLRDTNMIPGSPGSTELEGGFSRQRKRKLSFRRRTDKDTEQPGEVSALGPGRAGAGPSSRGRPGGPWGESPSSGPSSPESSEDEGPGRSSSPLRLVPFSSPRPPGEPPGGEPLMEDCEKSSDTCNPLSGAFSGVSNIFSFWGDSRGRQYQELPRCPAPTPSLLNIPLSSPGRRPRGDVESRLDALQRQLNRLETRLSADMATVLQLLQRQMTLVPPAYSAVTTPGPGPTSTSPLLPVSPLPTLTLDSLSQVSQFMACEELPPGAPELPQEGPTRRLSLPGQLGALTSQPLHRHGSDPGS

Structure (SMILES) | hERG current change (%, negative = inhibition) at 1uM [%]
CC(C1CC1)N(Cc1ccccc1)C(=S)Nc1cccc(C(F)(F)F)c1 (stereo not drawn) | 6.07
CCOc1ccc(N2C(=O)CC(N(Cc3ccco3)C(=O)CCC(=O)O)C2=O)cc1 (stereo not drawn) | 13.2
Clc1ccc(OC2CCN(Cc3nc(CC4CC4)no3)CC2)cc1 | -0.691
COC(=O)c1ccc(Oc2nc(Nc3ccc(F)cc3)nc(N3CCCC3)n2)cc1 | 14.9
O=C1CC(C(=O)NCCc2ccccc2)SC(=Nc2ccccc2)N1 (stereo not drawn) | 12.1
O=C(CCC(=O)c1cccs1)NCc1cccnc1 | 14.7
CCC(=O)c1ccc(OCC(=O)OCC(=O)Nc2sccc2C(N)=O)cc1 | 6.84
Cc1ccc(-c2noc(-c3c(C)noc3C)n2)cc1 | 13.1
Cc1cc(NC(=O)CSc2nc(=O)cc(N)n2-c2ccc(C)c(C)c2)no1 | 10.9
CCCCNS(=O)(=O)c1ccc(NC(=O)Cc2ccccc2[N+](=O)[O-])cc1 | 7.87
CCOCCCn1c(C)nc2c(c1=O)c1nc3ccccc3nc1n2-c1ccc(C)cc1 | -0.542
CCCCNC(=S)N1CCN(C)CC1.O=C(O)C(=O)O | 15.3
CCC(C)NC(=O)c1ccc(CSCc2ccc(Cl)cc2)o1 (stereo not drawn) | 2.14
CCOc1ccc(NC(=O)COc2ccc(C(=O)NC3CCCc4ccccc43)cc2OC)cc1 (stereo not drawn) | 6.36
COc1cc(NC(=O)Cc2ccc(Cl)cc2)ccc1NC(=O)c1ccco1 | 4.88
O=C(CCCC(=O)N(CC(=O)NC1CCCC1)Cc1ccc(F)cc1)Nc1ccccn1 | -3.34
COc1cc(C2SCC(=O)N2Cc2ccccc2)cc(OC)c1OC (stereo not drawn) | 12.6
N#C/C(=C\c1ccc(OCC(N)=O)cc1)c1ccccc1 | 8.8
CC(=NC1CC1)C1=C(O)c2ccccc2C1=O | 23.9
Cc1cc(Cl)c2oc(C(=O)N3CCN(c4ccncc4)CC3)c(C)c2c1 | -83.6
CCC(O)(C(=O)Nc1ccccc1C(F)(F)F)c1ccccc1OC (stereo not drawn) | 10.8
Cc1ccc(C(=O)NNC(=O)C(C)Oc2ccc3ccccc3c2)o1 (stereo not drawn) | 16.4
O=C(CCCCn1c(=O)[nH]c2ccccc2c1=O)N1CCN(c2cccc(C(F)(F)F)c2)CC1 | 3.42

Structure (SMILES) | hERG current change (%, negative = inhibition) at 1uM [%]
O=C(CSCc1nc2ccccc2[nH]1)Nc1ccc(Oc2ccccc2)cc1 | 8.76
NC(=O)[C@H]1CC2(CC(c3cccc(NC(=O)COc4ccc(Cl)cc4)c3)=NO2)CN1C(=O)C(c1ccccc1)c1ccccc1 (stereo partly drawn) | 13.7
Cc1cccc(-c2noc(-c3ccoc3C)n2)c1 | 4.61
O=C(CSc1nncs1)Nc1ccc2c(c1)OCO2 | 7.78
Clc1ccc(N=c2ssnc2Cl)cc1 | 14.7
N#CCC1c2ccccc2CCN1C(=O)Nc1ccc(Cl)cc1 (stereo not drawn) | 1.25
CCOC(=O)C1=C(CS(=O)(=O)c2ccccc2)NC(=O)NC1c1ccccc1OC (stereo not drawn) | 11.5
Cc1ccc(-n2c(CSc3nc(C)cc(C)n3)nnc2SCC(=O)N2CCCC2)cc1 | 9.42
CCN(CC(=O)Nc1ccccc1-c1ccccc1)Cc1nc2ccccc2c(=O)[nH]1 | 2.63
CC1CC2C3CCC4=CC(=O)C=CC4(C)C3(F)C(O)CC2(C)C1(O)C(=O)CO (stereo not drawn) | 12.2
CC(=O)c1c(C)[nH]c(C(=O)Nc2ccc(Cl)cc2F)c1C | 9.69
COc1cc(OC)cc(C(=O)N[C@H](C(=O)OCC(=O)Nc2ccc(F)c(F)c2)C(C)C)c1 | 12.1
CCOc1cc(NC(=O)CCl)c(OCC)cc1NC(=O)CCl | 14.1
COC(=O)C1=C(c2cccc(OCc3ccccc3)c2)C[C@@H]2CC[C@H]1N2C(=O)NCc1cc(C)oc1C(F)(F)F | 10.5
CCSC1=C(C#N)C2(CCCCC2)C(C#N)=C(N)N1 | 9.78
CCOC(=O)C1CCN(S(=O)(=O)c2cc(F)ccc2OC)CC1 | 8.83
Cc1cccc(C2c3[nH]c4ccccc4c3CCN2C(=O)c2cc3c([nH]c2=O)CCCC3)n1 (stereo not drawn) | 4.42
COC(=O)C1=C(C)Nc2ncnn2C1c1ccccn1 (stereo not drawn) | 1.41
COc1ccc2[nH]c3c(c2c1)[C@@H]1CCN2C(=O)CCC[C@H](C3)[C@H]12 | -15
Cc1cc(S(=O)(=O)N(C)CCc2ccccc2)ccc1-n1cnnn1 | 1.09
COc1ccc(C(=O)Nc2cccc3c2CCCC3)cc1 | 15
COCCCNC(=O)C1CC(=O)N(CCc2ccc(F)cc2)C1 (stereo not drawn) | 8.14
